Test results as given in PubChem BioAssay AID1346428 (National Center for Advancing Translational Sciences (NCATS), 2018).
In all, about 48,000 compounds went through this assay and about 1,200 (2.5%) were called active. Another 2% or so got no clear call; they are omitted.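 Rule for the calls: active = activation of at least 60% and not above a set upper limit (about 1 call in 100 departs from these limits); inconclusive = activation of 40% to 60%, or above that upper limit; inactive = activation under 40%.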 The list shows a part of the results.

target: Probable G-protein coupled receptor 32 (Homo sapiens) (UniProt O75388); assay: qHTS for Agonists of Human Resolvin D1 Receptor DRV1; conditions: CHO-K1 GPR32 beta-arrestin PathHunter luminescence, 90 min; at 76.9 µM; active compounds read high; zero percent set by DMSO-only wells
Chain of UniProt O75388 (O75388 whole entry, looked up): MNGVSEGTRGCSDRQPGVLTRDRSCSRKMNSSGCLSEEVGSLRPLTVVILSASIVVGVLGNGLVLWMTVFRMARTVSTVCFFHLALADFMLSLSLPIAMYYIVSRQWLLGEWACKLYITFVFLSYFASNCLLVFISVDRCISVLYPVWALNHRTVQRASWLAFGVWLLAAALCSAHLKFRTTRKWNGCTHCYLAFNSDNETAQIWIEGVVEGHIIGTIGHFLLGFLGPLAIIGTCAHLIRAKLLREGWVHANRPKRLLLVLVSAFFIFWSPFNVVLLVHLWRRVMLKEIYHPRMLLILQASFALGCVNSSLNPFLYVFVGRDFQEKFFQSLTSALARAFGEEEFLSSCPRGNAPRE
Excerpt: Endogenous resolution of inflammation is known to be transduced through various GPCRs and their natural mediators of lipid nature. Resolvin D1 (RvD1) is one of the active players in resolution of acute inflammation through regulation of anti-inflammatory pathways; it is known to enhance phagocytosis of human macrophages, limits neutrophils infiltration, etc. […] The search for GPR32-activating small molecules with anti-inflammatory effects similar to its natural omega-3 derivative ligand in order to use them as research tools for further studies of inflammation and its resolution was the goal of this screening project. For primary screening assay, we used CHO-K1 GPR32 beta-arrestin cell line (DiscoveRx, #93-0321C2A) and the PathHunter(R) beta-Arrestin Assay (DiscoveRx) which measures recruitment of beta-arrestin to the GPR32 and generates chemiluminescent signal. These engineered cells stably transfected with GPR32 co-express GPR32-fused small 42-amino acid fragment of beta-Gal called ProLinktrade mark, and […] -tagged beta-Arrestin fusion protein. When GPR32 is activated by a ligand, it stimulates binding of beta -Arrestin to ProLink-tagged GPR32, and two parts of beta-Gal complement forming a functional enzyme. Upon substrate (PathHunter(R) Detection reagent) addition, beta-Gal hydrolyzes it and generates a chemiluminescent signal.
The cells were thawed and plated in thawing media containing F-12 HAM (Invitrogen, #11765-054), 10% FBS (Invitrogen, #10082), 1x Glutamine, and 1x Pen/Strep onto the 175-mm flask for 24 hours. Then, thawing media was replaced with Growth media which contains 800microg/mL Geneticin (Invitrogen, #10131) and 300microg/mL Hygromycin B (Invitrogen, #10687) in addition to described above. For the assay, the cells were harvested at ~80% confluent stage with Cell Dissociation buffer (Gibco, #13151), and seeded at 2,500 cells/ 3microL/well in assay media (PathHunter(R) Cell Plating Reagent, DiscoverX, #93-0563R1B) using MultiDrop Combi dispenser (Thermo Scientific, Logan, UT) onto white solid bottom tissue culture-treated 1536-well plates (Greiner # 789173-F) and allowed to attach overnight at 37 degrees C, 95% humidity, 5% CO2, . Next, 23nL/well of compound solutions in DMSO were added with a Pin Tool (Kalypsis, San Diego, CA) to the assay plates. As the basal control (EC0), 23 nL/well of DMSO was used on each plate. The cells were incubated in the presence of compounds or DMSO for 90 minutes at 37 degrees C, 5% CO2. Subsequently, 1.5microL/well of PathHunter(R) Detection Reagent prepared per the manufacturer's instructions was added to the assay plates with BioRAPTR FRDtrade mark dispenser (Beckman Coulter, San Francisco, CA) and incubated for 1 hour at ambient temperature prior to the measurement of the luminescent signal on ViewLux(R) uHTS Microplate Imager (Perkin Elmer, Waltham, MA).

| SMILES | activation |
| --- | --- |
| O=C(C1CCC(Cn2c(=O)c3sccc3n(Cc3ccccc3F)c2=O)CC1)N1CCOCC1 (centres undefined) | inactive: -17.1% |
| COc1ccccc1C(=O)Nc1ccc(-c2cc(C(F)(F)F)nn2-c2ccccc2)cc1 | inactive: -28.6% |
| CCOC(=O)c1c(C)[nH]c(C)c1S(=O)(=O)N1CCCC(C(=O)N2CCN(c3cccc(Cl)c3)CC2)C1 (centres undefined) | inactive: 8.51% |
| O=C(NCc1ccccc1Cl)c1ccc2c(c1)NC(=O)C(CS(=O)(=O)Cc1ccc(Cl)cc1)N2 (centres undefined) | inactive: -23.5% |
| O=C(Nc1ccc(F)c(F)c1)C(c1ccccc1)N1Cc2ccccc2C1=O (centres undefined) | inactive: -21.2% |
| Cc1ccc2nc(-c3ccc(C)s3)c(Nc3ccc4c(c3)OCCO4)n2c1 | inactive: -44.4% |
| COc1ccc(CCNC(=O)CN(c2ccccc2)S(=O)(=O)N(C)C)cc1 | inactive: -1.96% |
| COc1ccccc1-c1nn(CCC(=O)Nc2ccccc2)c2nc(C)cc(C)c12 | inactive: 1.69% |
| CCN(CC)CCNC(=O)c1cc2c(-c3cccc(OC)c3)nn(C)c2s1 | inactive: 6.33% |
| Cc1cccc2sc(N(Cc3cccnc3)C(=O)c3ccco3)nc12 | inactive: -27% |
| COc1ccccc1OCC(=O)NCCS(=O)(=O)N1CCN(c2ccccc2OC)CC1 | inactive: -12.5% |
| Cc1ccc2[nH]cc(C(c3ccccc3)c3ccc(Cl)s3)c2c1 (centres undefined) | inactive: 30.9% |
| Cc1nn(C(C)C(=O)NCc2ccco2)c(=O)c2nn(-c3ccccc3)c(C)c12 (centres undefined) | inactive: 1.11% |
| Cc1ccc(C(=O)N2CCN(CCc3ccncc3)CC2)cc1 | inactive: 0.356% |
| CCOc1ccccc1NC(=O)Cn1c(=O)n(CCCC(=O)NCc2ccc(C)cc2)c(=O)c2ccccc21 | inactive: -0.431% |
| CN1C(=O)c2ccccc2Sc2ccc(NC(=O)N3CCN(c4ccc(F)cc4)CC3)cc21 | inactive: -3.89% |
| COc1ccc(-c2nc(S(=O)(=O)c3ccccc3)c(N3CCC(C)CC3)o2)cc1 | inactive: -7.73% |
| COc1ccc(NC(=O)C(NS(=O)(=O)c2cccc3nsnc23)C(C)C)cc1OC (centres undefined) | inactive: -19.8% |
| COc1ccc(S(=O)(=O)Nc2cccc(-c3ccc(N4CCCCC4)nn3)c2)cc1F | inactive: -6.46% |
| Oc1ccc(NCc2ccccc2OCc2ccccc2)cc1 | inactive: -84.8% |
| CCOc1ccc(CNC(=O)c2cc3cc(S(=O)(=O)N4CCCCC4)ccc3n2C)cc1 | inactive: -3.21% |

| SMILES | activation |
| --- | --- |
| Cc1ccc(Cl)cc1-n1c(SCC(=O)NCc2ccccc2)nc2n[nH]c(C)c2c1=N | inactive: 9.34% |
| CSc1ccc(CCNC(=O)CN2C(=O)COc3ccc(S(=O)(=O)N4CCCCCC4)cc32)cc1 | inactive: 5.66% |
| CCOC(=O)c1cccc(NC(=O)c2cc(C)nc3c2c(C)nn3-c2ccc(C)cc2)c1 | inactive: -13.3% |
| COc1cc(Nc2nc3ccc(Cl)cc3nc2-n2nc(C)cc2C)cc(OC)c1 | inactive: -18.1% |
| Cc1ccc(Cl)cc1NC(=O)CCn1cnc2ccccc2c1=O | inactive: 8.08% |
| CCOC(=O)c1ccc(NC(=O)C2=C(C)C(=O)OC23CCN(C(C)=O)CC3)cc1 | inactive: -9.74% |
| O=C(CN1C(=O)COc2ccc(S(=O)(=O)NC3CCCC3)cc21)NCc1ccccc1Cl | inactive: -9.62% |
| Cn1ncc2c(Nc3cccc(C#N)c3)ncnc21 | inactive: -7.62% |
| CCc1cccc(C)c1NC(=O)CSc1n[nH]c(-c2ccccc2)n1 | inactive: -1.49% |
| Cc1cc(C)cc(NC(=O)C(=O)NCC(c2cccnc2)N2CCOCC2)c1 (centres undefined) | inactive: 3.7% |
| Cc1ccccc1OCCSc1nnc(-c2cccs2)o1 | inactive: 5.89% |
| Cc1nc(Nc2ncc(C(=O)Nc3c(C)cccc3Cl)s2)cc(N2CCN(CCO)CC2)n1 | inactive: 28.5% |
| COc1ccc(Cl)cc1NC(=O)Cn1c(=O)n(Cc2ccc(F)cc2)c(=O)c2cccnc21 | inactive: -8.69% |
| CCN(CCO)CCCC(C)Nc1ccnc2cc(Cl)ccc12 (centres undefined) | inactive: -1.44% |
| CCC(C(=O)NCCC(C)C)N(C(=O)Cn1nnc(-c2ccc(C)cc2)n1)c1cccc(O)c1 (centres undefined) | inactive: -10.8% |
| Cc1ccc(NC(=O)Cn2c(=O)n(CCC(C)C)c(=O)c3cccnc32)cc1C | inactive: 13.7% |
| COc1ccccc1N1CCN(C(=O)Cn2c(=O)nc(-c3ccccc3)c3ccccc32)CC1 | inactive: 2.94% |
| CC1CN(C(=O)N2CCC(C(=O)NCc3ccccc3F)CC2)c2cc(Cl)ccc2O1 (centres undefined) | inactive: -0.525% |
| CCOc1ccc(NC(=O)C(C)n2c(=O)cc(-c3ccccc3)c3c(C)nn(C)c32)cc1 (centres undefined) | inactive: -11.8% |
| Cc1ccc(Cl)cc1-n1ncc2c(Nc3ccc4c(c3)OCCO4)ncnc21 | inactive: -6.12% |
| O=C(c1ccc2c(c1)N(Cc1c(F)cccc1Cl)C(=O)c1ccccc1S2)N1CCCC1 | inactive: -10.8% |

| SMILES | activation |
| --- | --- |
| CCc1ccc(NC(=O)c2ccc(Cn3nc(N4CCN(c5ccccc5)CC4)ccc3=O)o2)cc1 | inactive: 0.331% |
| COc1cc(NC(=O)CN2C(=O)COc3ccc(S(=O)(=O)NC4CCCC4)cc32)cc(OC)c1 | inactive: -16.5% |
| CC(=O)N1CCCC1c1nc2ccccc2n1Cc1ccc(F)cc1 (centres undefined) | inactive: 4.84% |
| COc1ccc(-c2cc3ncc(C(=O)c4cc([N+](=O)[O-])ccc4O)cn3n2)cc1 | inactive: 13.7% |
| O=C(Nc1cccc2cccnc12)c1ccc(-c2cccc(Cl)c2)o1 | inactive: 11.3% |
| CC1CCc2c(sc3nnn(CC(=O)Nc4c(C(C)C)cccc4C(C)C)c(=O)c23)C1 (centres undefined) | inactive: -9.84% |
| COc1cc(NS(=O)(=O)c2c(C(=O)N3CCCCC3)c(C)n(C)c2C)cc(OC)c1OC | inactive: 6.26% |
| CCCn1c2ccccc2c2cnn(CC(=O)NCCCN(CC)c3ccccc3)c(=O)c21 | inactive: -25.7% |
| O=C(Nc1sc2c(c1C(=O)NCC1CCCO1)CCC2)c1cc(=O)c2cc(Cl)ccc2o1 (centres undefined) | inactive: -9.93% |
| Cn1nnnc1SCCCNCc1cc(Br)ccc1OCc1ccccc1F | inactive: 26.3% |
| CCOC(=O)c1cc(-c2ccccc2)n(CC(=O)Nc2ccccc2OCC)c1C | inactive: -11.4% |
| COc1cccc(NC(=O)CCCn2c(=O)c3cccn3c3cccnc32)c1 | inactive: -27.1% |
| Cc1ccc(CCNC(=O)c2ccc3c(c2)N(Cc2ccccc2F)C(=O)c2ccccc2S3=O)cc1 (centres undefined) | inactive: 11.8% |
| Fc1ccc(-c2csc(=Nc3cccc(C(F)(F)F)c3)n2Cc2ccc3c(c2)OCO3)cc1 | inactive: 3.63% |
| CCOC(=O)c1c(S(=O)(=O)NCC(=O)Nc2ccc(C(C)=O)cc2)c(C)n(C)c1C | inactive: -6.17% |
| COc1ccc(-c2nc(CCNC(=O)c3ccccc3)cs2)cc1OC | inactive: -4.93% |
| Fc1ccc(-c2cc(-c3ccccc3)c3c(n2)-c2ccccc2OC3)cc1 | inactive: -1.07% |
| Cc1cccc(C)c1NC(=O)CCCn1c(=O)c2cccn2c2ccccc21 | inactive: -18.6% |
| O=C1C(=O)N(C2CCNCC2)CCN1Cc1ccccc1 | inactive: -0.782% |
| CC(=O)Nc1c(C)nn(-c2ccccc2)c1N1CCC(C(=O)Nc2ccccc2C(F)(F)F)CC1 | inactive: -0.628% |
| O=C(CN1c2ccc(Br)cc2-c2ccccc2S1(=O)=O)N1CCCCC1 | inactive: -14.2% |

| SMILES | activation |
| --- | --- |
| Cc1ccc(NC(=O)N2CCN(Cc3nc4ccc(C)cc4o3)CC2)cc1 | inactive: -8.97% |
| COc1cccc(Nc2nc3c(S(=O)(=O)c4cc(C)ccc4C)nnn3c3ccsc23)c1 | inactive: -6.56% |
| CCN1CCc2nc3sc(C(=O)Nc4ccccc4OC(F)(F)F)c(N)c3cc2C1 | inactive: -17.3% |
| Cc1cc(C)c(NC(=O)CSC2=Nc3ccccc3C3=NC(CC(=O)NCc4cccs4)C(=O)N23)c(C)c1 (centres undefined) | inactive: -19.3% |
| CC(C)c1ccc2c(c1)c(SC(C)(C)C)c(CC(C)(C)C(=O)O)n2Cc1ccc(Cl)cc1 | inactive: -7.85% |
| Cc1cc(=O)c2cc(C(=O)Nc3ccc(F)cc3)ccc2[nH]1 | inactive: 6.44% |
| CCOC(=O)N1CCN(S(=O)(=O)N2CCCC(C(=O)NCc3cc(Br)ccc3OC)C2)CC1 (centres undefined) | inactive: 13.6% |
| Cc1cccn2c(=O)c(C(=O)NC(C)c3ccccc3)c(O)nc12 (centres undefined) | inactive: -12.6% |
| CCOc1ccc(Nc2oc(/C=C/c3ccc(OC)c(OC)c3)nc2C#N)cc1 | inactive: -15% |
| COc1ccc(CNc2oc(/C=C/c3cc(OC)c(OC)c(OC)c3)nc2C#N)cc1 | inactive: -24.5% |
| O=C(Cn1c(-c2cccs2)cc2cc(F)ccc21)N1CCN(c2ccccc2)CC1 | inactive: -14.7% |
| COc1ccc(C)cc1-n1nnc(S(=O)(=O)c2ccc(C)cc2)c1C | inactive: 9.94% |
| COc1ccc2c(C)c(CCC(=O)NCc3ccccc3OC)c(=O)oc2c1 | inactive: 4.97% |
| CN1CCCCC1CCN1c2ccccc2Sc2ccc(S(C)=O)cc21 (centres undefined) | active: 64.5% |
| CCN(CC)S(=O)(=O)c1ccc(C(=O)NC2CC(=O)N(c3ccc(OC)c(OC)c3)C2)cc1 (centres undefined) | inactive: -5.41% |
| O=C(COc1ccc(Cl)cc1)NCC(c1ccco1)S(=O)(=O)c1ccc(F)cc1 (centres undefined) | inactive: -13.8% |
| CCOCCCNC(=O)C(=O)Nc1c2c(nn1-c1ccccc1)CSC2 | inactive: -28.1% |
| Cc1ccc(N(CC(=O)NCCSc2ccccc2)S(=O)(=O)c2ccc(F)cc2)cc1 | inactive: 37.9% |
| CC(=O)c1ccc(NC(=O)c2cc3sccc3n2Cc2ccc(Cl)cc2)cc1 | inactive: 23.3% |
| COCCCn1c(=O)c2sccc2n2c(CCCC(=O)Nc3cccc(OC)c3)nnc12 | inactive: -3.12% |
| COc1ccc(CNC(=O)c2cc3cccc4c3n2CC(C)S4)cc1OC (centres undefined) | inactive: -23.5% |
